The source of these data is article PMC4336329 (PLoS ONE, 2015).

SMILES strings stand for the structures. Hit rate of the full screen: of about 310,000 compounds, about 2,200 (0.71%) showed an effect of 50% or more. Effects have a minus sign here. Some of the results follow.

The target of this assay is human ether-à-go-go-related gene (hERG) potassium channel (human, UniProt Q12809). Description: primary screen, population patch clamp on CHO cells stably expressing hERG.
human ether-à-go-go-related gene (hERG) potassium channel, sequence (Q12809 whole entry, looked up): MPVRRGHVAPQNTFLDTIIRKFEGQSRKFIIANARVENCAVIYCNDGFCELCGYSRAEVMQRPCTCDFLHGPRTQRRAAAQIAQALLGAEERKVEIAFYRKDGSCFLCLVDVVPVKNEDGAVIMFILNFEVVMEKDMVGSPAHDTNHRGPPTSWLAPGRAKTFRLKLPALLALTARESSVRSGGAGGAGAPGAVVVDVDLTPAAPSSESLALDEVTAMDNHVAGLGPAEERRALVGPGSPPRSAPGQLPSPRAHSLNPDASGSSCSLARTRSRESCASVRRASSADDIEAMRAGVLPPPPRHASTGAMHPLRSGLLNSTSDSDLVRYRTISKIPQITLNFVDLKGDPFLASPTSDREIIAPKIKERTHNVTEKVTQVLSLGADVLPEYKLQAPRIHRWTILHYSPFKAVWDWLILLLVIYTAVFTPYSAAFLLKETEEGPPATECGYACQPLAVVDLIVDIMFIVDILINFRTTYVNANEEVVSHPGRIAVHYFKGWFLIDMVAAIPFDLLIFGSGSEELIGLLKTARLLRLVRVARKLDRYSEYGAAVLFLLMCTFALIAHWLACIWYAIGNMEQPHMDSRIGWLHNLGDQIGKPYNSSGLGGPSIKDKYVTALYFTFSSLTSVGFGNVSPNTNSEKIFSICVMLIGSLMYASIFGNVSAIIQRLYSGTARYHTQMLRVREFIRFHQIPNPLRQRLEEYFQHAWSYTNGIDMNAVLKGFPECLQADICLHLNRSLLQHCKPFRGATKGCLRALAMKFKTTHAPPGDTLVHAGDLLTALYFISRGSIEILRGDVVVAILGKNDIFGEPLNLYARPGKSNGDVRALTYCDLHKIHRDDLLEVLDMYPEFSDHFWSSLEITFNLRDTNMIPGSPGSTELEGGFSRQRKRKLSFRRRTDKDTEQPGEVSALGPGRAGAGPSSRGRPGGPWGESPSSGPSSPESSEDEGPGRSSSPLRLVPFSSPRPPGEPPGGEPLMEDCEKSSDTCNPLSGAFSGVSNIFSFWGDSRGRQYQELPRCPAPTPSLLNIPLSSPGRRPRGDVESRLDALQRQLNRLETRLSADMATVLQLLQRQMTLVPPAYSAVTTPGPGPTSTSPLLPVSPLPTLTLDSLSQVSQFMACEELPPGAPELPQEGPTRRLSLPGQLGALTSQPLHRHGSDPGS
Turning to `O=C1c2ccccc2C(Nc2ccc(Cl)cn2)N1c1cccnc1` (stereo not shown), the “hERG current change (%, negative = inhibition) at 1uM” value was determined as 7.12%.

For the compound `CN(C)C=NC(=O)/C(C#N)=C/c1ccccc1`, the “hERG current change (%, negative = inhibition) at 1uM” value is recorded as 7.83%. The value for `COCCCNC(=O)CC(=O)N/N=C\c1ccc(SC)cc1` was 14.2%. With `CN(CC(=O)Nc1ccccc1Cl)C(=O)COC(=O)c1nc(Cl)ccc1Cl`, the “hERG current change (%, negative = inhibition) at 1uM” value came to 1.42%. Turning to `Cc1ccc(NC(=O)CNCC2CCCCC2)cc1S(=O)(=O)N(C)C`, the “hERG current change (%, negative = inhibition) at 1uM” value stood at 6.65%. Regarding `COc1ccc(/C=N/Nc2ccccn2)cc1OC`, the “hERG current change (%, negative = inhibition) at 1uM” value came out at 7.46%. For `COC(=O)Cc1cc(=O)[nH]c(/N=C(\N)Nc2ccccc2C)n1`, the “hERG current change (%, negative = inhibition) at 1uM” value is 4.74%. The value for `CCc1ccc(-c2cc(C(=O)Nn3cnnc3)c3ccccc3n2)cc1` was 14.2%; that for `Cc1cc(C)n(CC(=O)NNC(=O)C2CC(=O)N(Cc3ccccc3Cl)C2)n1` (stereo not shown) was 3.89%; that for `CCCN(CCC)CCCNC(=O)c1cn(CC)c2ccc(S(=O)(=O)N3CCc4ccccc4C3)cc2c1=O` was -47.9%. With `C/C(CC(=O)NCc1ccccc1)=N\NC(N)=S`, the “hERG current change (%, negative = inhibition) at 1uM” value came to 12.6%. The figure for `COCCN(C(=O)CSc1ncc(C(F)(F)F)cc1Cl)c1c(N)n(Cc2ccccc2)c(=O)[nH]c1=O` is 11.3%; for `Cc1cc(C)c2nc(NCCCNC(=S)NCCCN(C)C)c(C#N)cc2c1` it is 15.7%; for `CCC(C)NC(=O)CS(=O)Cc1nc(-c2cccc(OC)c2)oc1C` (stereo not shown) it is 10.1%. In the case of `C=CCn1c(N)cc(=O)nc1SCC(=O)Nc1cccc2ccccc12`, the “hERG current change (%, negative = inhibition) at 1uM” value is 7.26%. Take `O=C1Nc2ccccc2C1=Nc1ccc(Cl)cc1`: the “hERG current change (%, negative = inhibition) at 1uM” value is reported as 9.42%. The figure for `COc1ccc(CNC(=O)C2(CC3CC(c4ccccc4)=NO3)CCN(C(=O)c3cccc(O)c3)CC2)cc1` (stereo not shown) is 8.84%; for `O=[n+]1c2c(n([O-])c3cc(F)c(F)cc31)CCCC2` it is 9.84%; for `COc1cc(/C(C)=N/Nc2ccc(C(=O)O)cc2)cc(OC)c1OC` it is 1.3%.

Consider `COc1ccc(OC)c(C(=O)Cn2c3[n+](c4ccc(C(F)(F)F)cc42)CCCCC3)c1.[Cl-]`, for which the “hERG current change (%, negative = inhibition) at 1uM” value is 7.45%. For the compound `COC(=O)C1N[C@@H]([C@@H](NC(=O)COc2ccccc2)C(=O)Nc2ccc(OC)cc2)SC1(C)C` (stereo partly shown), the “hERG current change (%, negative = inhibition) at 1uM” value is 8.15%. The figure for `COc1cc(OC)cc(Oc2ccc(S(=O)(=O)N3CCCCC3)cc2[N+](=O)[O-])c1` is 9.91%; for `Cc1ccc(S(=O)(=O)Nc2c(C)nn(C)c2C)c(C)c1` it is 6.73%.

With `CCCCNC(=O)CNC(=O)c1cccs1`, the “hERG current change (%, negative = inhibition) at 1uM” value amounted to 14.4%. As for `Cc1ccccc1C(=O)NCCN=C1NS(=O)(=O)c2ccccc21`, the “hERG current change (%, negative = inhibition) at 1uM” value is on record as 13.5%. On to `COCCN(C(=O)c1ccc(-c2ccc(Cl)cc2)o1)c1c(N)n(CC(C)C)c(=O)[nH]c1=O`, for which the “hERG current change (%, negative = inhibition) at 1uM” value came out at 18.7%. Consider `COc1ccc(CC(=O)N/N=C/c2cccs2)cc1OC`, for which the “hERG current change (%, negative = inhibition) at 1uM” value turned out to be 2.89%. The figure for `COc1ccc(-c2noc(CCC(=O)NCc3cccnc3)n2)cc1OC` is 12.9%; for `Cc1nnc(SCC2=C(C(=O)[O-])N3C(=O)C(NC(=O)Cc4ccccc4)C3SC2)s1.[Na+]` (stereo not shown) it is 11%; for `CC(=O)Nc1cccc(OC(=O)N2CCOCC2)c1` it is 11%. The figure for `Cc1ccc(S(=O)(=O)N2CCN(C(=O)c3ccc(N4CCCC4)c([N+](=O)[O-])c3)CC2)cc1` is 6.97%. On to `O=C(CSc1ccccc1F)NC(=O)NCc1ccco1`, for which the “hERG current change (%, negative = inhibition) at 1uM” value is given as 4.94%. The value for `CC(=O)NC(C)C(=O)OCC(=O)c1ccc(-c2ccccc2)cc1` (stereo not shown) was 16.6%. The figure for `CCOCCn1c(=NC(=O)c2ccc(S(=O)(=O)N3CCOCC3)cc2)sc2cc(S(N)(=O)=O)ccc21` is 6.79%; for `O=C(Nc1nc2ccccc2[nH]1)c1cccc(S(=O)(=O)N2CCOCC2)c1` it is 3.76%; for `CN(C)c1oc(-c2ccccc2Cl)nc1C#N` it is 2.86%.

Consider `COc1ccc2[nH]c(C(=O)NCc3ccccc3)cc2c1`, for which the “hERG current change (%, negative = inhibition) at 1uM” value is listed as 8.83%. The figure for `CCOC(=O)Cc1csc(NC(=O)CN2C(=O)c3ccccc3S2(=O)=O)n1` is 3.55%. Take `N#C/C(=C\c1ccccc1)c1ccccn1`: the “hERG current change (%, negative = inhibition) at 1uM” value is 13.3%.

On to `O=C(CSc1nc2ccccc2[nH]1)NCCN1CCCCC1`, for which the “hERG current change (%, negative = inhibition) at 1uM” value is recorded as 4.78%.

For `Cc1cc(C)c(NC(=O)CNC(=O)c2ccc3c(=O)n4c(nc3c2)CCC4)c(C)c1`, the “hERG current change (%, negative = inhibition) at 1uM” value was 2.6%. Take `Cn1ncc(Cl)c1C(=O)Nc1ccc(CN2CCCCC2)cc1`: the “hERG current change (%, negative = inhibition) at 1uM” value is recorded as 20.5%. The value for `Cc1ccccc1NC(=O)Cc1nc(COC(=O)CCc2ccccc2)cs1` was 6.6%; that for `CCC(=O)N1CCc2cc(Br)cc(S(=O)(=O)N3CCCCC3CC)c21` (stereo not shown) was 6.11%; that for `Cc1cccc(OCC(=O)N(Cc2ccco2)C2CCS(=O)(=O)C2)c1` (stereo not shown) was 1.08%. Take `N/C(=N\c1nc2ccccc2o1)NC(=O)c1ccccc1`: the “hERG current change (%, negative = inhibition) at 1uM” value is given as 16.6%. The value for `COc1cccc(NC(=O)c2oc3ccc(S(=O)(=O)N4CCOCC4)cc3c2C)c1` was 10.7%; that for `CCOc1cc(C(=O)N2CCC(CC3CC(c4ccc(Cl)cc4)=NO3)(C(=O)NCC3CCCCC3)CC2)cc(OCC)c1OCC` (stereo not shown) was 11.9%. The value for `Cl.N=C(c1ccc([N+](=O)[O-])cc1)N1CCCCCC1` was -2.78%; that for `Cn1cc(CNC(=O)c2sc3cccc(Cl)c3c2Cl)cn1` was -1.68%.

`Cc1cc(C)c(S(=O)(=O)N2CCOCC2)cc1NS(=O)(=O)c1cc(OCC(N)=O)c(C)cc1Cl`: the “hERG current change (%, negative = inhibition) at 1uM” value is on record as 15.8%. The value for `Cc1ccc(C2(c3noc(CN4C[C@@H](C)O[C@@H](C)C4)n3)CCCC2)cc1` was 10.1%; that for `O=C(NNC(=O)C1C2CCC(C2)C1C(=O)O)c1cccc(Cl)c1` (stereo not shown) was 6.27%.

As for `COC(=O)Cn1cc(/C=N/NC(=O)COc2cccc3cccnc23)c2ccccc21`, the “hERG current change (%, negative = inhibition) at 1uM” value is 3.35%. The value for `O=C(CCSc1nnc2ccccn12)Nc1ccc(F)cc1` was 3.91%.
